# Assay results reported in the supplement of paper PMC8728848.
# The list shows a part of the results.
# B1: SefD (Salmonella enterica), Q9L6K6 (protein)
# chain: GAYIIRGQNNSAHKLRIRIGGEDWQPDNSGIGMVSHSDFTNEFNIYYFGNGDIPVDTYLISIYATEIEL
# Legend:
# Experiment in all cases: glycan array binding signal (z-score within array); higher = stronger binding
# Conditions in all cases: glycan notation: IUPAC condensed, linker removed
# [1] = biological target: Neu5Ac(a2-3)[GalNAc(b1-4)]Gal(b1-4)Glc
# How it was run: (§1)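 Glycan array data were curated from 3228 arrays in the Consortium for Functional Glycomics database and kept only where the protein sequence was available. Glycan names were converted to IUPAC-condensed notation, and columns mapping to the same glycan were averaged. The binding signal is a within-array Z-score, averaged across arrays of the same protein sequence at different concentrations or buffers and across linkers. Negative Z-scores can be read as non-binding.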
# [2] = biological target: Neu5Ac(a2-3)[GalNAc(b1-4)]Gal(b1-4)GlcNAc
# How it was run: as §1
# [3] = biological target: Neu5Ac(a2-3)[GalNAc(b1-4)]Gal(b1-4)GlcNAc(b1-3)GalNAc
# How it was run: as §1
# [4] = biological target: Neu5Ac(a2-3)[Neu5Ac(a2-6)]GalNAc
# How it was run: as §1
# Neu5Ac(a2-6)Gal = biological target: Neu5Ac(a2-6)Gal
# How it was run: as §1
# [5] = biological target: Neu5Ac(a2-6)Gal(b1-3)GlcNAc(b1-3)[Gal(b1-4)GlcNAc(b1-6)]Gal(b1-4)Glc
# How it was run: as §1
# Neu5Ac(a2-6)Gal(b1-4)Glc = biological target: Neu5Ac(a2-6)Gal(b1-4)Glc
# How it was run: as §1
# [6] = biological target: Neu5Ac(a2-6)Gal(b1-4)GlcNAc
# How it was run: as §1
# [7] = biological target: Neu5Ac(a2-6)Gal(b1-4)GlcNAc(b1-2)Man(a1-3)Man(b1-4)GlcNAc(b1-4)GlcNAc
# How it was run: as §1
# [8] = biological target: Neu5Ac(a2-6)Gal(b1-4)GlcNAc(b1-2)Man(a1-3)[Gal(b1-4)GlcNAc(b1-2)Man(a1-6)]Man(b1-4)GlcNAc(b1-4)GlcNAc
# How it was run: as §1
# [9] = biological target: Neu5Ac(a2-6)Gal(b1-4)GlcNAc(b1-2)Man(a1-3)[GlcNAc(b1-2)Man(a1-6)]Man(b1-4)GlcNAc(b1-4)GlcNAc
# How it was run: as §1
# [10] = biological target: Neu5Ac(a2-6)Gal(b1-4)GlcNAc(b1-2)Man(a1-3)[GlcNAc(b1-2)Man(b1-4)GlcNAc(b1-2)Man(a1-6)]Man(b1-4)GlcNAc(b1-4)GlcNAc
# How it was run: as §1
# [11] = biological target: Neu5Ac(a2-6)Gal(b1-4)GlcNAc(b1-2)Man(a1-3)[Man(a1-6)]Man(b1-4)GlcNAc(b1-4)GlcNAc
# How it was run: as §1
# [12] = biological target: Neu5Ac(a2-6)Gal(b1-4)GlcNAc(b1-2)Man(a1-3)[Neu5Ac(a2-6)Gal(b1-4)GlcNAc(b1-2)Man(a1-6)]Man(b1-4)GlcNAc(b1-4)GlcNAc
# How it was run: as §1
# [13] = biological target: Neu5Ac(a2-6)Gal(b1-4)GlcNAc(b1-2)Man(a1-6)Man(b1-4)GlcNAc(b1-4)GlcNAc
# How it was run: as §1
# [14] = biological target: Neu5Ac(a2-6)Gal(b1-4)GlcNAc(b1-2)Man(a1-6)[Gal(b1-4)GlcNAc(b1-2)Man(a1-3)]Man(b1-4)GlcNAc(b1-4)GlcNAc
# How it was run: as §1
# [15] = biological target: Neu5Ac(a2-6)Gal(b1-4)GlcNAc(b1-2)Man(a1-6)[GlcNAc(b1-2)Man(a1-3)]Man(b1-4)GlcNAc(b1-4)GlcNAc
# How it was run: as §1
# [16] = biological target: Neu5Ac(a2-6)Gal(b1-4)GlcNAc(b1-2)Man(a1-6)[Man(a1-3)]Man(b1-4)GlcNAc(b1-4)GlcNAc
# How it was run: as §1
# [17] = biological target: Neu5Ac(a2-6)Gal(b1-4)GlcNAc(b1-3)Gal(b1-3)GlcNAc
# How it was run: as §1
# [18] = biological target: Neu5Ac(a2-6)Gal(b1-4)GlcNAc(b1-3)Gal(b1-4)GlcNAc
# How it was run: as §1
# [19] = biological target: Neu5Ac(a2-6)Gal(b1-4)GlcNAc(b1-3)Gal(b1-4)GlcNAc(b1-3)Gal(b1-4)GlcNAc
# How it was run: as §1
# [20] = biological target: Neu5Ac(a2-6)Gal(b1-4)GlcNAc(b1-3)Gal(b1-4)[Fuc(a1-3)]GlcNAc(b1-3)Gal(b1-4)[Fuc(a1-3)]GlcNAc
# How it was run: as §1
# [21] = biological target: Neu5Ac(a2-6)Gal(b1-4)GlcNAc(b1-3)GalNAc
# How it was run: as §1
# [22] = biological target: Neu5Ac(a2-6)Gal(b1-4)GlcNAc6S
# How it was run: as §1
# Neu5Ac(a2-6)GalNAc = biological target: Neu5Ac(a2-6)GalNAc
# How it was run: as §1
# [23] = biological target: Neu5Ac(a2-6)GalNAc(b1-4)GlcNAc
# How it was run: as §1
# [24] = biological target: Neu5Ac(a2-6)GlcNAc(b1-4)GlcNAc
# How it was run: as §1
# [25] = biological target: Neu5Ac(a2-6)GlcNAc(b1-4)GlcNAc(b1-4)GlcNAc
# How it was run: as §1
# Neu5Ac(a2-8)Neu5Ac = biological target: Neu5Ac(a2-8)Neu5Ac
# How it was run: as §1
# [26] = biological target: Neu5Ac(a2-8)Neu5Ac(a2-3)Gal(b1-3)GalNAc(b1-4)[Neu5Ac(a2-8)Neu5Ac(a2-3)]Gal(b1-4)Glc
# How it was run: as §1
# [27] = biological target: Neu5Ac(a2-8)Neu5Ac(a2-3)Gal(b1-4)Glc
# How it was run: as §1
# [28] = biological target: Neu5Ac(a2-8)Neu5Ac(a2-3)[Gal(b1-3)GalNAc(b1-4)]Gal(b1-4)Glc
# How it was run: as §1
# [29] = biological target: Neu5Ac(a2-8)Neu5Ac(a2-3)[GalNAc(b1-4)]Gal(b1-4)Glc
# How it was run: as §1
# [30] = biological target: Neu5Ac(a2-8)Neu5Ac(a2-8)Neu5Ac
# How it was run: as §1
# [31] = biological target: Neu5Ac(a2-8)Neu5Ac(a2-8)Neu5Ac(a2-3)Gal(b1-4)Glc
# How it was run: as §1
# [32] = biological target: Neu5Ac(a2-8)Neu5Ac(a2-8)Neu5Ac(a2-3)[GalNAc(b1-4)]Gal(b1-4)Glc
# How it was run: as §1
# [33] = biological target: Neu5Ac(a2-8)Neu5Ac(a2-8)Neu5Ac(a2-8)Neu5Ac(a2-3)[GalNAc(b1-4)]Gal(b1-4)Glc
# How it was run: as §1
# [34] = biological target: Neu5Ac(b2-6)Gal(b1-4)GlcNAc
# How it was run: as §1
# Neu5Ac(b2-6)GalNAc = biological target: Neu5Ac(b2-6)GalNAc
# How it was run: as §1
# [35] = biological target: Neu5Ac9Ac(a2-3)Gal(b1-3)GlcNAc
# How it was run: as §1
# [36] = biological target: Neu5Ac9Ac(a2-3)Gal(b1-4)GlcNAc
# How it was run: as §1
# [37] = biological target: Neu5Ac9Ac(a2-6)Gal(b1-4)GlcNAc
# How it was run: as §1
# [38] = biological target: Neu5Gc(a2-3)Gal(b1-3)GlcNAc
# How it was run: as §1
# [39] = biological target: Neu5Gc(a2-3)Gal(b1-3)[Fuc(a1-4)]GlcNAc
# How it was run: as §1
# Neu5Gc(a2-3)Gal(b1-4)Glc = biological target: Neu5Gc(a2-3)Gal(b1-4)Glc
# How it was run: as §1
# [40] = biological target: Neu5Gc(a2-3)Gal(b1-4)GlcNAc
# How it was run: as §1
# [41] = biological target: Neu5Gc(a2-3)Gal(b1-4)[Fuc(a1-3)]GlcNAc
# How it was run: as §1
# [42] = biological target: Neu5Gc(a2-6)Gal(b1-4)GlcNAc
# How it was run: as §1
# Neu5Gc(a2-6)GalNAc = biological target: Neu5Gc(a2-6)GalNAc
# How it was run: as §1
# [43] = biological target: Neu5Gc(b2-6)Gal(b1-4)GlcNAc
# How it was run: as §1
binder,measurement,setting,value
B1,glycan array binding signal (z-score),[1],-0.476
same,glycan array binding signal (z-score),[2],-0.226
same,glycan array binding signal (z-score),[3],-0.547
same,glycan array binding signal (z-score),[4],0.227
same,glycan array binding signal (z-score),Neu5Ac(a2-6)Gal,-0.352
same,glycan array binding signal (z-score),[5],-0.158
same,glycan array binding signal (z-score),Neu5Ac(a2-6)Gal(b1-4)Glc,-0.45
same,glycan array binding signal (z-score),[6],-0.151
same,glycan array binding signal (z-score),[7],-0.493
same,glycan array binding signal (z-score),[8],0.667
same,glycan array binding signal (z-score),[9],-0.531
same,glycan array binding signal (z-score),[10],-0.442
same,glycan array binding signal (z-score),[11],-0.301
same,glycan array binding signal (z-score),[12],2.08
same,glycan array binding signal (z-score),[13],-0.575
same,glycan array binding signal (z-score),[14],-0.646
same,glycan array binding signal (z-score),[15],-0.228
same,glycan array binding signal (z-score),[16],-0.157
same,glycan array binding signal (z-score),[17],-0.157
same,glycan array binding signal (z-score),[18],1.78
same,glycan array binding signal (z-score),[19],0.312
same,glycan array binding signal (z-score),[20],-0.108
same,glycan array binding signal (z-score),[21],-0.405
same,glycan array binding signal (z-score),[22],0.087
same,glycan array binding signal (z-score),Neu5Ac(a2-6)GalNAc,0.116
same,glycan array binding signal (z-score),[23],-0.259
same,glycan array binding signal (z-score),[24],-0.535
same,glycan array binding signal (z-score),[25],-0.293
same,glycan array binding signal (z-score),Neu5Ac(a2-8)Neu5Ac,1.37
same,glycan array binding signal (z-score),[26],-0.42
same,glycan array binding signal (z-score),[27],0.431
same,glycan array binding signal (z-score),[28],0.969
same,glycan array binding signal (z-score),[29],-0.42
same,glycan array binding signal (z-score),[30],-0.435
same,glycan array binding signal (z-score),[31],-0.496
same,glycan array binding signal (z-score),[32],-0.374
same,glycan array binding signal (z-score),[33],-0.331
same,glycan array binding signal (z-score),[34],-0.3
same,glycan array binding signal (z-score),Neu5Ac(b2-6)GalNAc,-0.628
same,glycan array binding signal (z-score),[35],-0.479
same,glycan array binding signal (z-score),[36],-0.352
same,glycan array binding signal (z-score),[37],-0.295
same,glycan array binding signal (z-score),[38],0.217
same,glycan array binding signal (z-score),[39],-0.378
same,glycan array binding signal (z-score),Neu5Gc(a2-3)Gal(b1-4)Glc,-0.187
same,glycan array binding signal (z-score),[40],-0.51
same,glycan array binding signal (z-score),[41],-0.358
same,glycan array binding signal (z-score),[42],0.422
same,glycan array binding signal (z-score),Neu5Gc(a2-6)GalNAc,-0.478
same,glycan array binding signal (z-score),[43],-0.326
